Measurements reported in PubChem BioAssay (Tox21).
Several values for one entry are separate records, joined by “and”; a condition that tells them apart may be missing. Identical values can stand only once. This list was built around the results that the source calls inconclusive (neither active nor inactive); the mix of calls is not that of the screen. For some of these results: Potencies beside an inconclusive call are fits to weak or partial responses and may not hold up. More than one record can exist for a structure, and the calls need not agree. Activity calls are given as the source filed them. Unless noted, calls come from the whole dose curve; as a rule, active = well fitted curve in the direction sought with a large enough effect in the repeat runs; inconclusive = weak or mixed curves; inactive = no such curve, though single readings can be large; an effect the other way counts as inactive or inconclusive.

Assays:
[1] = biological target: Peroxisome proliferator-activated receptor gamma (Homo sapiens) (UniProt P37231); test: qHTS assay to identify small molecule antagonists of the peroxisome proliferator-activated receptor gamma (PPARg) signaling pathway (AID 743191; calls by dose curve; note: nearly all actives have a fitted effect of over 30% in size; note: potency is the fitted concentration of half-maximal effect); conditions: HEK293H PPARg-UAS-bla, beta-lactamase ratio, antagonist, 17 h
Chain of UniProt P37231 (P37231 whole entry, looked up): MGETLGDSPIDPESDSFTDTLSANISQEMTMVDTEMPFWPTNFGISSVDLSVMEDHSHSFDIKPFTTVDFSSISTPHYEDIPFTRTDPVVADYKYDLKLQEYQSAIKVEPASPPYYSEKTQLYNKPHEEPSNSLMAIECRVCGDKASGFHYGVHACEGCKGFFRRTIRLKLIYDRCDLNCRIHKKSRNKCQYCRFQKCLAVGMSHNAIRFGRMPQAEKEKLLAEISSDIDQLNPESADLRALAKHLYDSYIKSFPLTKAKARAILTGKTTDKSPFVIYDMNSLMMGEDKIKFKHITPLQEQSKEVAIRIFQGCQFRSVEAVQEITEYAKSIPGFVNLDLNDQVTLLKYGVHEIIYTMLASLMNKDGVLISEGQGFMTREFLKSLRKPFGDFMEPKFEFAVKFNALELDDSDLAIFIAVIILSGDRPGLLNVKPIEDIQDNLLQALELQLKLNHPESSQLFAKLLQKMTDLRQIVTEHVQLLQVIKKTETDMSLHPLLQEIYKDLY
Outline: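 GeneBLAzer PPARg UAS-bla HEK293H cells carrying a UAS-driven beta-lactamase reporter were plated at 3000 cells/well, preincubated 5 h at 37C, then given compound for 17 h at 37C; LiveBLAzer B/G FRET substrate was read after 1 h at room temperature.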

[2] = biological target: Peroxisome proliferator-activated receptor delta (Homo sapiens) (UniProt Q03181); test: qHTS assay to identify small molecule agonists of the peroxisome proliferator-activated receptor delta (PPARd) signaling pathway (AID 743212; calls by dose curve; note: potency is the fitted concentration of half-maximal effect); conditions: HEK293H PPARd-UAS-bla, beta-lactamase FRET ratio, 17 h; activation: at 62.6 µM (top of the series) unless noted
Chain of UniProt Q03181 (Q03181 whole entry, looked up): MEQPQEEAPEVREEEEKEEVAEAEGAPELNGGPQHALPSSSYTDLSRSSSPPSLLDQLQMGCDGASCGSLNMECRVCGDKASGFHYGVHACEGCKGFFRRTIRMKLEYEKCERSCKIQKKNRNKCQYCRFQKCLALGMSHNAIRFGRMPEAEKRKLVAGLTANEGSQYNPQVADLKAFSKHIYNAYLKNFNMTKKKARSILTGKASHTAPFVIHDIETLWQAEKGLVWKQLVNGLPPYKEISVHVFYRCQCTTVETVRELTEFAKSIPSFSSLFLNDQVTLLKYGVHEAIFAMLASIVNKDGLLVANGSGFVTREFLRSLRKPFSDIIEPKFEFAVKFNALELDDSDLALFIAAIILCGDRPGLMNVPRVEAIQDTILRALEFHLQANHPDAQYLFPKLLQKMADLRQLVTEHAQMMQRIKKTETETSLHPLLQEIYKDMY
Outline: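 A PPARd-bla HEK293H line with beta-lactamase under an Upstream Activator Sequence is treated with compounds at 37 C. Substrate loading for 2 h at room temperature precedes the fluorescence measurement.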

[3] = biological target: Peroxisome proliferator-activated receptor delta (Homo sapiens) (UniProt Q03181); test: qHTS assay to identify small molecule antagonists of the peroxisome proliferator-activated receptor delta (PPARd) signaling pathway (AID 743215; active = well fitted inhibition curve with a large enough effect in the signal ratio in the repeat runs, not every such curve was filed as active; inconclusive = weak or mixed curves, or effect the other way; inactive = no such curve, though single readings can be large or run the other way; the % refers to the signal ratio;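 note: cells stimulated with agonist L165041 at 300 nM final during compound exposure; % is set by controls: 0 for no effect and ±100 for the full control effect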); conditions: HEK293H PPARd-UAS-bla, beta-lactamase FRET ratio, antagonist, 17 h; ratio activity, negative = inhibition: at 62 µM (top of the series) unless noted
Outline: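 PPARd-bla HEK293H cells (UAS-bla reporter) preincubated 5 h, then given compound plus 300 nM final L165041 agonist for 17 h at 37 C. Beta-lactamase activity read by LiveBLAzer B/G FRET substrate fluorescence after 2 h at room temperature.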

[4] = qHTS assay to identify small molecule agonists of the NFkB signaling pathway - cell viability counter screen (AID 1159515; calls by dose curve; note: nearly all actives have a fitted effect of over 55% in size; note: potency is the fitted concentration of half-maximal effect)
Outline: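 NFkB-bla ME-180 cells, 2,000/well, plated overnight at 37 C; compound added for 5 hr at 37 C. Viability read in the same wells as the bla reporter, by CellTiter-Glo luminescence after 30 min at room temperature.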

[5] = qHTS assay to identify small molecule agonists of the endoplasmic reticulum stress response signaling pathway (AID 1159516; active = well fitted activation curve with a large enough effect in the signal ratio in the repeat runs, not every such curve was filed as active; inconclusive = weak or mixed curves, or effect the other way; the % refers to the signal ratio; note: potency is the fitted concentration of half-maximal effect; for activation: % is set by controls: 0 for no effect and ±100 for the full control effect); conditions: ESRE-bla HeLa, ER stress beta-lactamase reporter, 5 h; activation: at 61 µM (top of the series) unless noted
Outline: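 CellSensor ESRE-bla HeLa cells, 1,500 per well, plated overnight, then exposed to compounds for 5 hr at 37 C. Beta-lactamase reporter read with LiveBLAzer B/G FRET substrate after 2 hr at room temperature, 405 nm excitation, 460 and 530 nm emission.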

[6] = qHTS assay for small molecule agonists of the antioxidant response element (ARE) signaling pathway (AID 743202; active = well fitted activation curve with a large enough effect in the signal ratio in the repeat runs, not every such curve was filed as active; inconclusive = weak or mixed curves, or effect the other way; inactive = no such curve, though single readings can be large or run the other way; the % refers to the signal ratio; note: potency is the fitted concentration of half-maximal effect); conditions: HepG2 ARE-bla reporter, beta-lactamase FRET, 16 h
Outline: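 Compounds delivered in DMSO to ARE-bla HepG2 cells (2,000 cells/well, pre-incubated 5 h) and left 16 h at 37 C. LiveBLAzer B/G FRET substrate then added for 2 h at RT before fluorescence reading.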

[7] = qHTS assay to identify small molecule agonists of the peroxisome proliferator-activated receptor delta (PPARd) signaling pathway - cell viability counter screen (AID 743211); conditions: PPARd-bla HEK293H viability, CellTiter-Glo luminescence, 17 h; activity change, negative = cytotoxicity: at 62.6 µM (top of the series) unless noted; note: nearly all actives have a fitted effect of over 55% in size; note: potency is the fitted concentration of half-maximal effect
Outline: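 Viability was measured as CellTiter-Glo luminescence (30 min, room temperature) in the same wells as the beta-lactamase readout. GeneBLAzer PPARd UAS-bla HEK293H cells received compound after 5 h plating and were incubated 17 h at 37 C.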

[8] = qHTS assay to identify small molecule agonists of the farnesoid-X-receptor (FXR) signaling pathway - cell viability counter screen (AID 743218); conditions: FXR-bla HEK293T viability, CellTiter-Glo luminescence, 16 h; viability change, negative = cytotoxic: at 62.6 µM (top of the series) unless noted; note: potency is the fitted concentration of half-maximal effect; nearly all actives have a fitted effect of over 45% in size
Outline: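 FXR-UAS-bla HEK 293T cells exposed to compounds for 16 h at 37C. Cytotoxicity read in the same wells by CellTiter-Glo luminescence after 30 min at room temperature, following the beta-lactamase FRET read.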

[9] = qHTS assay to identify small molecule agonists of the vitamin D receptor (VDR) signaling pathway - cell viability counter screen (AID 743224); note: potency is the fitted concentration of half-maximal effect; nearly all actives have a fitted effect of over 50% in size
Outline: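 VDR-bla cells, 4 h after plating, exposed to compounds for 16 h at 37C; viability then read in the same wells as CellTiter-Glo luminescence after 30 min at room temperature, following the bla FRET read.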

[10] = qHTS assay to identify small molecule antagonists of the vitamin D receptor (VDR) signaling pathway - cell viability counter screen (AID 743225); conditions: VDR-bla HEK293T viability, CellTiter-Glo luminescence, 16 h; viability change, negative = cytotoxic: at 61 µM (top of the series) unless noted; note: potency is the fitted concentration of half-maximal effect; nearly all actives have a fitted effect of over 50% in size
Outline: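 Cytotoxicity counter screen read by CellTiter-Glo luminescence (30 min, room temperature) in the same wells as the VDR-bla antagonist readout. HEK 293T VDR-UAS-bla cells had 16 h at 37C with compound and 3 nM (final) 1-alpha,25-dihydroxyvitamin D3, then 2 h with FRET substrate.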

[11] = qHTS assay for small molecule activators of the heat shock response signaling pathway - cell viability counter screen (AID 743209); conditions: HSE-bla HeLa viability, CellTiter-Glo luminescence, 5 h; activity change, negative = cytotoxicity: at 62.6 µM (top of the series) unless noted; note: potency is the fitted concentration of half-maximal effect; nearly all actives have a fitted effect of over 50% in size
Outline: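 HSE-bla HeLa cells plated overnight, then exposed to Tox21 compounds (23 nL in DMSO) for 5 h at 37 C. After the bla reporter read, CellTiter-Glo was added in the same wells and luminescence read after 30 min at room temperature.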

[12] = qHTS assay to identify small molecule antagonists of the peroxisome proliferator-activated receptor delta (PPARd) signaling pathway - cell viability counter screen (AID 743213); conditions: PPARd-bla HEK293H viability, CellTiter-Glo luminescence, 17 h; viability change, negative = cytotoxic: at 62 µM (top of the series) unless noted; note: nearly all actives have a fitted effect of over 50% in size; note: potency is the fitted concentration of half-maximal effect
Outline: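 Cytotoxicity counter screen: CellTiter-Glo luminescence read 30 min after addition, in the same wells as the reporter assay. There, PPARd UAS-bla HEK293H cells (3000/well) were treated 17 h at 37 C with compound and 300 nM L165041.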

[13] = biological target: Vitamin D3 receptor (Homo sapiens) (UniProt P11473); test: qHTS assay to identify small molecule agonists of the vitamin D receptor (VDR) signaling pathway (AID 743222; calls by dose curve; note: % is set by controls: 0 for no effect and ±100 for the full control effect); conditions: HEK293T VDR-UAS-bla, beta-lactamase FRET ratio, 16 h; activation: at 63.5 µM (top of the series) unless noted
Chain of UniProt P11473 (P11473 whole entry, looked up): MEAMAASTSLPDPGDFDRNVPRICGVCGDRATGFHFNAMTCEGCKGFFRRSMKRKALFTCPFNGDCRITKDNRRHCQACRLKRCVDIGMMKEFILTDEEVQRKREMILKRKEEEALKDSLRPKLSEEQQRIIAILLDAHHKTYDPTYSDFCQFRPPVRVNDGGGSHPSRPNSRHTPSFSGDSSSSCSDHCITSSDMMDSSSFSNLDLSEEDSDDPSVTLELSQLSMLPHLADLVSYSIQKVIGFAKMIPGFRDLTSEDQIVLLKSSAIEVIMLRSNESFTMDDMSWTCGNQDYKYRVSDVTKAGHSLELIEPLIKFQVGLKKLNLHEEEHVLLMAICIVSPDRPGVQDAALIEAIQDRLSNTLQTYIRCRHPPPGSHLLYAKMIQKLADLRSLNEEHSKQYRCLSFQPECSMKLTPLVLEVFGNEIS
Outline: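 VDR-bla cells plated 4 h at 37 C, then exposed to compounds for 16 h at 37 C. Beta-lactamase reporter activity measured by fluorescence after 2 h room-temperature loading with LiveBLAzer B/G FRET substrate.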

[14] = biological target: Vitamin D3 receptor (Homo sapiens) (UniProt P11473); test: qHTS assay to identify small molecule antagonists of the vitamin D receptor (VDR) signaling pathway (AID 743223; active = well fitted inhibition curve with a large enough effect in the signal ratio in the repeat runs, not every such curve was filed as active; inconclusive = weak or mixed curves, or effect the other way; inactive = no such curve, though single readings can be large or run the other way; the % refers to the signal ratio; note: % is set by controls: 0 for no effect and ±100 for the full control effect); conditions: VDR-UAS-bla HEK293T, beta-lactamase FRET ratio, 16 h; activity change, negative = inhibition: at 61 µM (top of the series) unless noted
Outline: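 Antagonist mode: compound added to VDR-bla cells alongside agonist 1alpha,25-dihydroxyvitamin D3 (3 nM final), incubation 16 h at 37C. Read-out is LiveBLAzer FRET fluorescence, 2 h at room temperature.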

[15] = ratio activity, negative = inhibition: at 62.6 µM (top of the series) unless noted
[16] = activation: at 73.3 µM (top of the series) unless noted
Tags give direction and shape of the fitted curve or compound fluorescence and quenching.

Nc1ccccc1C(=O)OCC(O)CO (centres undefined)
Potency [1, 15]: inconclusive: 9.44 µM [inhibitor, partial curve, poor fit] | Potency [2]: inconclusive: 0.0531 µM [rising, full curve, poor fit] | Potency [3]: inactive | Potency [4]: inactive | Potency [5]: inactive

NNc1ccccc1
ratio activity, negative = inhibition ([1]; at 62.6 µM (top of the series)): inactive: -36.2% | Potency [1, 15]: active: 13.8 µM and inconclusive: 776 nM [inhibitor] and inconclusive: 8.41 µM [inhibitor, partial curve, poor fit] | ratio activity, negative = inhibition [1, 15]: inconclusive: -36.5% | activation [6, 16]: inconclusive: 23.5% | activation ([6]; at 73.3 µM (top of the series)): inactive: 27.2% | Potency [7]: inactive and inconclusive: 21.9 µM [cytotoxic, single point] | Potency [8]: inconclusive: 8.71 µM [cytotoxic, full curve, poor fit] and inconclusive: 4.9 µM [cytotoxic, full curve] | Potency [9]: inconclusive: 13.8 µM [cytotoxic, partial curve] [middle of 4 runs] | Potency [10]: inconclusive: 8.71 µM [cytotoxic, full curve] | Potency [4]: inconclusive: 0.0012 µM [rising, full curve, poor fit]

CC(=O)[O-].CC(=O)[O-].O.O.[Cd+2]
Potency [6, 16]: inconclusive: 0.479 µM [falling, full curve] | Potency [11]: inconclusive: 68.2 µM [cytotoxic, partial curve, poor fit] | Potency [7]: active: 0.765 µM | Potency [12]: active: 19.2 µM | Potency [9]: active: 1.21 µM | Potency [10]: active: 15.3 µM | Potency [4]: inconclusive: 54.2 µM [cytotoxic, single point] | Potency [5]: active: 0.216 µM

C=CC(=O)OCC(C)C
ratio activity, negative = inhibition [1, 15]: inconclusive: -10.2% | Potency [12]: inactive | Potency [13]: inactive | Potency [4]: inconclusive: 61.2 µM [rising, partial curve, poor fit] | Potency [5]: inactive

Nn1cnnc1
Potency [1, 15]: inactive | ratio activity, negative = inhibition [3]: inconclusive: 12.5% | Potency [8]: inconclusive: 59.6 µM [rising, single point] | Potency [14]: inactive | Potency [4]: inconclusive: 9.44 µM [cytotoxic, partial curve] | Potency [5]: inactive
